Source: the supplement of paper PMC3334620
The full ranking holds about 33,000 sequences; the median of “E-score (-0.5 to 0.5)” is about -0.036, and the highest 2% start at about 0.37. The list shows a part of the results.

Each sequence was assayed against T1, Yer064c (UniProt P40041) (assay: PBM E-score (8-mer binding enrichment) (E-score (-0.5 to 0.5)); higher = stronger / more preferred TF binding; most listed sequences are background and not binding sites). Conditions: protein concentration: 200 nM; construct: GST-full length.
T1 sequence: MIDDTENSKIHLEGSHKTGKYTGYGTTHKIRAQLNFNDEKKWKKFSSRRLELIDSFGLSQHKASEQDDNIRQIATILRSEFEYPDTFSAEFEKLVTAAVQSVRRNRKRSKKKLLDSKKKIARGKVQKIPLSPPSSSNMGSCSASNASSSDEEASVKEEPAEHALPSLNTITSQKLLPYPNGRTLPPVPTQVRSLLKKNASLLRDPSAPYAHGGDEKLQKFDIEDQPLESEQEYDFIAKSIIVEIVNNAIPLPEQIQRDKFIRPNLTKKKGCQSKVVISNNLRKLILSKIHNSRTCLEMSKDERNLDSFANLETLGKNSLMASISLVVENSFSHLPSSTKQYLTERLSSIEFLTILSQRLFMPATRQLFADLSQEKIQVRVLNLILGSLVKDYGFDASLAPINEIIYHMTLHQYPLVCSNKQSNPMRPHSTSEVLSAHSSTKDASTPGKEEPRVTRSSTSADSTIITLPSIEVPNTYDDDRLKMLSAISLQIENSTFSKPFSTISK
Method in brief: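 Universal all-10-mer Agilent arrays, fresh or stripped once, were converted to double-stranded form by primer extension. GST-tagged yeast transcription factors from PURExpress in vitro transcription/translation, full-length or DNA-binding domain only, were applied at about 100-200 nM and detected with fluorescent anti-GST. After masliner normalisation, the Universal PBM Analysis Suite scored each ungapped eight-base word together with its reverse complement by E-score.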

Sequence | PBM E-score
ATTAAGGC | 0.083
CACTTTAC | 0.0259
ATGGGGTG | 0.107
GGTTACGA | -0.0968
GTGGCCTA | -0.27
CCCTTTCA | -0.163
CTCTTCCA | 0.104
ACATTATA | 0.0259
GCTAATAC | -0.15
CACGGGGA | -0.13
ATTACAAG | 0.116
GACAAGTC | 0.0909
ATGAATCA | 0.48
TTGATAAA | 0.159
ATAACGGG | 0.0331
CCGTATCA | -0.154
ACGTACCT | 0.0817
CCTCACGC | -0.0626
CAATTCAC | 0.00416
TGAGCACA | 0.0308
CCCCGACA | -0.259
AATTCCGT | -0.0163
ACGCATGA | 0.146
CGGTGCAA | -0.205
ACCAAGTC | 0.185

Sequence | PBM E-score
CTCACCAG | 0.108
TGCCGCAA | -0.0744
TATGAGAA | 0.0045
AGGAACAT | -0.094
AGAAACTA | 0.00317
CTCAGCTA | 0.0318
GATCAATA | 0.0196
ATAATTCG | -0.0723
CAAGTAGC | -0.102
CGTCCACG | -0.0549
AGCTTTTA | -0.0383
CGGGCTAC | -0.0732
CTAACTGA | 0.194
TGTACTAA | 0.149
GCGACGCA | -0.266
CGTGTCTA | 0.0936
GCGTGGAC | -0.241
ACCATGGA | -0.13
ACGCGAAC | -0.175
GAAATACA | -0.159
GTGGTCAA | -0.0298
CGAGATAC | 0.152
AGTCCACC | 0.286
AGTGGGCA | -0.178
CTCTGGGA | -0.125

Sequence | PBM E-score
AAGAAGAG | 0.0167
ACGGGTCC | -0.229
TTCTAGAA | -0.0199
ACAACTGG | -0.153
ACATCTCA | -0.0708
ATTACCAG | 0.0778
ATAAGACG | -0.0263
TATCCTGA | 0.0939
ACCGCGCG | -0.0654
CGTGACTC | 0.481
GATATCCA | 0.0321
ATCAAAAA | 0.141
CGTCACAC | -0.155
CAGCAGGG | -0.285
CCCTCCAC | -0.216
AACATTAG | -0.135
TACAAAAA | 0.0717
GCACAGGC | -0.273
CAGACGGC | 0.0127
AGCAGGCG | -0.0705
CGGGCCGC | -0.28
GACGTTGA | 0.0804
CATTTACC | 0.0252
CGTTTCAG | 0.0529
AGCATGAG | 0.156

Sequence | PBM E-score
CACAGTCA | 0.411
ACGTACCC | 0.0425
AATATGTG | 0.0684
CCTTATAA | -0.066
CGTCAAAG | 0.0679
CATTCATC | -0.0877
CGAAAACG | 0.0119
GTGTGGGA | -0.235
TCAGCGGA | 0.056
CGGATGGA | -0.0152
GCCTTATA | 0.00107
AATGATCT | 0.226
AGCATACC | -0.0889
CAGGCATC | 0.0801
CCAAAAGC | -0.178
AGGATTAT | 0.00303
ATCGAACC | -0.0791
ACAACTCG | -0.209
ACAGTACC | -0.105
AACCGCGC | -0.0822
GAAGTTCA | -0.024
AACCAGGT | -0.0103
ACTTTCGC | -0.0328
AGGGCCGC | -0.316
CGATGCGA | -0.162

Sequence | PBM E-score
GAAACAAA | 0.0449
CTAGCTAG | 0.0714
AGGTGGAG | -0.29
AGACGACC | -0.0204
AATTCTCA | 0.0655
AGCGACCT | -0.305
GCTAGTCC | 0.0288
AAAGAAAG | 0.00468
AATAGCAT | -0.165
AGCTCTGA | 0.0218
CCGGTTGA | -0.0809
ATTTCTCG | 0.105
ATCGTGGC | 0.0187
GGGGATTA | -0.00464
TGCAAAAA | 0.0376
AGGAGCGC | -0.205
GGCTGATA | -0.114
GTACGGAC | 0.103
GAATTACC | -0.0729
GGCTGCCC | -0.21
ACGAGCGG | -0.222
GCGCCAGC | -0.297
CAACCAGC | -0.0309
ATCCCGGA | 0.00118
ACAGGGGG | -0.12

Sequence | PBM E-score
AAATGGAT | 0.102
CGAGTATC | -0.0827
AAAAAGTA | 0.174
CCCTTTAC | -0.137
AACAGTAA | 0.034
AATCTGCG | -0.101
ACTAGAGT | 0.188
ACAGCTCT | -0.224
CTCTAGAG | -0.0437
ACTGTTAA | 0.173
AATGGATA | 0.0647
CAACGATG | 0.128
GATGACAC | 0.0978
ACGCCCGC | -0.411
AACTTTCG | -0.134
GTTCAGCA | 0.0631
CATCGTCA | 0.0555
GTGGGCCA | -0.0911
AGGAAAAG | -0.0349
CCCTCTGA | 0.0818
GTCTGTCA | -0.107
ATCGAGGC | -0.301
AAAGGAGT | 0.118
ACCTGGTG | -0.0925
GATGTACA | -0.118

Sequence | PBM E-score
GACTGAAC | 0.275
CGTCAGGA | -0.0376
AATCGCGG | 0.109
GGTCCAAC | -0.0443
CACCTGCC | -0.23
ACAGAATC | 0.15
AGATGTAT | -0.00575
TATATTAA | 0.172
ACTGCGAC | 0.228
ACCGCTAG | -0.171
AAACGAGG | -0.0986
CTAGGTAA | 0.156
TAACTCGA | 0.148
AACTTGTC | -0.185
CAGTAGCG | 0.0182
ACACGTGA | 0.0831
ACGCATTG | -0.0677
CGCCAGAG | -0.0733
CTGCAAAA | 0.0755
AACGCGAT | -0.145
ATTAGAAT | 0.186
ATTACAGC | 0.0956
